Experimental data from the supplement of paper PMC3334620.
The full ranking holds about 33,000 sequences; the median of “E-score (-0.5 to 0.5)” is about -0.021, and the highest 2% start at about 0.32. The list shows a part of the results.

What follows are sequences tested against T1, Zap1 (UniProt P47043) (assay: PBM E-score (8-mer binding enrichment) (E-score (-0.5 to 0.5)); higher = stronger / more preferred TF binding; most listed sequences are background and not binding sites). Settings: protein concentration: 200 nM; construct: GST-full length.
T1 sequence: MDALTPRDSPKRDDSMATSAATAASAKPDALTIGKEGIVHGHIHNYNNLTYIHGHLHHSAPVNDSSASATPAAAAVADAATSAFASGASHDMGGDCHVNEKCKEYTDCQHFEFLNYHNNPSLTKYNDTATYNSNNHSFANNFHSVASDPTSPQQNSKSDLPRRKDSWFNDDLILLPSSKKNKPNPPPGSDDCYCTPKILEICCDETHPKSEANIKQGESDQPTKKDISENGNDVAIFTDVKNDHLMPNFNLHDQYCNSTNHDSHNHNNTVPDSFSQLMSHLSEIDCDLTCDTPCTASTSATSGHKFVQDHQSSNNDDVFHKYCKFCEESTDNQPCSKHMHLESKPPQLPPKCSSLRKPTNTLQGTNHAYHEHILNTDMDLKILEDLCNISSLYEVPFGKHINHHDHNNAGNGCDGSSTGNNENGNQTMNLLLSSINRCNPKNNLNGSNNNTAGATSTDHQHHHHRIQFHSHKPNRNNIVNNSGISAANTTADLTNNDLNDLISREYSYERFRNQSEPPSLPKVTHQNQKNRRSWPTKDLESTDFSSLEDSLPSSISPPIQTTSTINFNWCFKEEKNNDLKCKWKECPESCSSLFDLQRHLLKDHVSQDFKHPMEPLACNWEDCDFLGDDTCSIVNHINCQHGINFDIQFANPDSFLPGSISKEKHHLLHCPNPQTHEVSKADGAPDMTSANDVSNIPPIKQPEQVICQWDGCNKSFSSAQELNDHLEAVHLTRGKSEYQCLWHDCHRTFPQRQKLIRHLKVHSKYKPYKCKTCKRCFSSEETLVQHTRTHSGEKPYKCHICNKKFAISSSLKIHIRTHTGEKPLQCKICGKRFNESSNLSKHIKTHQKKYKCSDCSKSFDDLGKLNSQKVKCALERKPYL
Summary of the method: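 Yeast transcription factors carrying a GST tag, as full-length proteins or DNA-binding domains, were produced by PURExpress in vitro transcription/translation. About 100-200 nM protein was applied to universal all-10-mer Agilent arrays, double-stranded by primer extension on fresh or once-stripped slides. Bound protein was detected with fluorescent anti-GST, and scans were normalised with masliner. The Universal PBM Analysis Suite gave each ungapped eight-base word, pooled with its reverse complement, an E-score, a modified Wilcoxon-Mann-Whitney statistic.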

Sequence	PBM E-score
AGATCCGC	-0.282
CAGCACAG	-0.0595
GCTGGCAA	0.00702
ATTAGTGC	0.137
TCAGGCGA	-0.134
GAACAATA	0.275
CACAGCGG	-0.0445
AATAGGGA	-0.0102
ATTCCGTG	0.0147
ACTATCTA	-0.0107
CAGAAGAG	-0.299
CCGTCGCG	-0.16
AGGAAGAT	-0.194
GAGAAGAC	-0.215
AAATTTGT	0.143
GGTGTTTA	0.213
GTTCGGGA	0.00302
CCGAGAGG	0.131
GAGCAAGA	-0.12
CAGCCTCG	-0.0379
AGAATGTG	-0.208
CCTGCCCG	0.0581
GTGAGATA	-0.165
CACGCCAG	0.041
AGACTAAA	-0.0986

Sequence	PBM E-score
CCGTGCCG	-0.0543
CTTTACCA	0.0781
ATCCGAGC	-0.195
CCACGAAG	0.0949
CGTACAAA	0.196
GAACCTGC	0.0662
AAGCCGTC	-0.0916
ACTGTCAT	-0.00186
AGATTTAC	0.0547
GGAGAGAA	0.00984
AAACAGGC	-0.305
AAGAACAA	0.22
ATGGTACC	0.392
CTTCGATC	-0.0104
TGCACACA	-0.125
CACAACGG	-0.0874
CATGGCCG	0.215
ATGGAAGG	-0.043
CCTTGAGC	0.145
GATCCGTA	-0.166
CAAGAATA	0.0764
ATCTACGC	0.0293
TGGTAGAA	-0.0071
TAAAAGAA	0.111
CATACTGC	-0.118

Sequence	PBM E-score
CCCTACCG	0.115
CAGGCGGG	-0.0919
AGTGGCAC	-0.122
CGGTAACC	0.47
AACAGTCA	-0.131
ACAGTCAT	-0.188
ACCGCTCC	-0.145
ATGAAGAG	-0.127
GTTCAAAC	0.0497
ATGACTCA	-0.0492
AAGTGAGG	-0.164
CTTCGAAA	0.0989
GATCGCCC	-0.141
ACTAGGTC	0.00448
ATTACCCA	0.279
CGATTTAC	0.059
AATGTTTA	-0.0861
TCTTATCA	0.123
CGACGGCC	-0.117
ACGAGCCG	-0.059
ACAAGCTA	-0.0465
ACGGGGTG	0.0182
CCTTCACC	0.0411
AGATTGGG	0.00076
TGAATTAA	0.271

Sequence	PBM E-score
AAAACGCT	-0.131
AGGAATTC	-0.193
ACCGTCCA	-0.0528
CAACTATA	-0.0153
CAACGGTG	-0.0667
ATGCAGCA	-0.0906
CACCGCGA	0.0268
ACGTCAAT	-0.18
AAAATTTC	-0.0327
TGGGCTAA	-0.0319
CCTCGGCG	0.0712
AACGGTCG	0.114
AAGTCGAC	0.0711
AGGAGCCC	-0.255
AAAACACA	0.235
AAAAAAAG	0.227
CCTCAGTC	-0.175
CTTCAACA	0.0668
GATGAAAA	0.0619
AGCAATTC	-0.0959
AGGGCGCG	-0.018
AAATGCTC	-0.111
CTTCTTAA	0.206
AAACTCAG	-0.111
CGCCCGAA	-0.232

Sequence	PBM E-score
CCACCATC	-0.13
ATTCCATA	0.124
TCCTACAA	0.087
AGTCGCAG	-0.172
ACCAGGCT	-0.131
GGTTGGAA	0.106
TGCCCACA	-0.0685
CAACCCAA	0.272
GGCCACTA	0.199
GCCCCGTA	-0.118
ATGAGTAG	-0.0825
CGAGACAG	-0.0545
ACGTTGTC	-0.173
GAAAGTTA	0.247
AATAAACT	0.0972
GCCCTAGA	-0.0927
CATGAGCG	-0.227
GACCTATC	-0.0378
AAGCACGC	0.0161
ACATTTCG	-0.157
GTCCTGCA	-0.1
ATGGTCCG	0.0865
CCCCCCGA	-0.297
CAAGAAAC	0.217
CGGTGTTA	0.0409

Sequence	PBM E-score
ATGCGGGC	-0.224
ACATCAGT	0.0188
ATGCACGC	-0.126
CGTACAAC	0.146
CGGATAAG	-0.227
AATCTCGA	-0.018
CGTGGCCC	0.0577
GGGGTGCA	-0.051
CGACTGCG	-0.225
ACCATATA	0.192
GTCATGAC	0.159
CGAAACAA	0.1
ACCCTAGT	0.411
ACCAAATG	0.142
AAGAGCGA	-0.218
GAAACTCA	0.0578
GCAATCCA	-0.134
ACCGCTCA	0.207
GGGCCCAC	-0.0677
ATTTCGAC	-0.11
CGTCGCTC	-0.234
AATTTGAT	0.00192
CGGGAGTA	0.0681
GCAACAGC	-0.137
ACTCGGAA	0.0579

Sequence	PBM E-score
TTCAGCAA	0.0982
ACAACCGC	0.285
TATCGGCA	-0.184
CCCCAATC	-0.0086
TCACCGGA	0.0563
GGAGAAAC	-0.0683
ATCGCTGA	0.0889
CAAGAGAC	-0.0386
ACATAGAT	-0.0396
CGCGGCGC	-0.0807
CCCCTTTC	-0.0371
CCCCACAC	-0.0263
ATGTGATG	-0.0628
ATCAAAGC	0.156
ACAGCTGT	0.0505
TAGCGAAA	0.125
TAGCTACA	0.031
TCGGCCGA	-0.00911
TCCAGACA	-0.0795
GACTTGTA	-0.113
AGCCCAGG	-0.191
AACTGAGT	-0.123
